# According to PubChem BioAssay AID1508642 (National Center for Advancing Translational Sciences (NCATS), 2021):
# About 200 (0.47%) of roughly 43,000 compounds were called active. Roughly 12% stayed inconclusive and do not appear here. Calls follow the shape of the dose curve; as a rule, active = well fitted cell-killing curve with a large enough effect; inconclusive = small, poorly fitted or top-dose-only effect, or effect the other way; inactive = flat fitted curve, though single readings scatter. Some of the results follow.
# Assay: Cell viability qHTS assay in S16 Pmp22-F2sN cells; also: nearly all actives have a fitted effect of over 65% in size
# Conditions: S16 Pmp22-F2sN Schwann cells (luciferase reporters placed in the Pmp22 gene) viability, CellTiter-Glo, 24 h; series mostly up to 57.5 µM; activity change, negative = cytotoxicity: at the top concentration
# From the text: Assay Provider: Jim Inglese Ph.D. National Center for Advancing Translational Science, National Institutes of Health, Rockville, MD CMT is a heterogeneous group of neurological disorders that affect approximately 1 in 2,500 people. In particular, the most common form of CMT, CMT1A is genetically linked to the duplication of the PMP22 gene which leads to Schwann cell overexpression, thus manifesting itself as a typical case of dose-sensitive diseases. To identify small molecule compounds that can mediate the expression of PMP22 we developed a phenotypic assay screening strategy by utilizing genome editing techniques to construct Schwann cell lines containing novel reporter technology to monitor the transcriptional or translational regulation of PMP22. For high sensitivity we use a bioluminescent reporter system embedded in the 3' UTR of the PMP22 gene (S16(c9) Pmp22-F2sN) to identify compounds that inhibit gene expression. […] We can further discriminate the effect of all transcriptionally active molecules on PMP22 translation or stability with an assay that incorporates a short NLuc peptide (HiBiT) at the C-terminus of expressed PMP22 (S16(f8) PMP22-HiBiT) allowing alpha complementation and luminescence detection of membrane-associated PMP22 protein. These assays were screened against the NCATS Sytravon Library Collection. Miniaturization of these assays to 1536-well plate format for quantitative high throughput screening (qHTS) yielded rich data sets immediately from the qHTS assay (S16(c9) Pmp22-F2sN), when compared with data from a cell viability assay (Cell TiterGlo) to identify compounds that decreased the output signals through cellular toxicity to streamline the selection process of actives for subsequent characterization using the HiBiT assay (S16(f8) PMP22-HiBiT).
# Cell viability assay in S16 Pmp22-F2sN cells PROTOCOL TABLE (format as described by Inglese J, Shamu CE and Guy RK. 2007) SEQUENCE No. (e.g., 1, 2, 3, etc.); […] (e.g., Cells, Incubation, Reagent, etc.); VALUE and DESCRIPTION. 1. Cells. Add 500-1,000 cells in 4 uL in growth media (DMEM High Glucose, No Phenol Red media + 10% heat-inactivated FBS + 1% Pen/Strep supplemented media) per well into Greiner 1536-well white/solid bottom high base, TC-treated plates. 2. Compounds. Library compounds and controls added at 23nL per well, transferred by Pin Tool. 3. Incubation. Incubate plates at 37C, 5% CO2, 95% RH for 24 h. 4. Reagent. Add 3uL CellTiter-Glo per well of Greiner 1536-well plates. 5. Incubation. Incubate plates at room temperature for 15 min., protect from light. 6. Detector. FLuc luminescence measured using CCD-based camera (Viewlux). NOTES (numbers refer to Sequence numbers above; values are from representative experiments) 6. Luminescence Read: Clear filter; Exposure = 1 sec, Gain = High, Speed = Slow, Binning = 2X REFERENCES: 1. Inglese J, Shamu CE and Guy RK, Reporting data from high throughput screening of small molecule libraries, Nature Chemical Biology, 2007, 3(8): 438-441. doi.org/10.1038/nchembio0807-438 2. Yasgar A, Shinn P, Jadhav A, Auld DS, Michael S, Zheng W, Austin CP, Inglese J and Simeonov A, Compound Management for Quantitative High-Throughput Screening. J. Assoc. Lab. Auto., 2008, 13: 79-89. doi: 10.1016/j.jala.2007.12.004
# % is scaled to controls: 0 for no effect and ±100 for the full control effect.
row,Structure (SMILES),"activity change, negative = cytotoxicity"
1,CCOc1ccc(NC(=O)c2c(NC(=O)c3ccncc3)sc3c2CCC(C(C)(C)C)C3)cc1 (stereo unspecified),inactive: -0.378%
2,COc1ccc(NC(=O)c2ccco2)cc1NC(=O)COc1cc(C)ccc1C(C)C,inactive: -0.486%
3,Cc1nc(N)c(S(=O)(=O)c2ccccc2)c(Nc2ccc(Br)cc2)n1,inactive: 1.55%
4,COc1ccc(Cl)cc1S(=O)(=O)N1CCC(c2ccncc2)CC1,inactive: -16.2%
5,CC(=O)N1c2ccccc2CC1C(=O)N1CCN(c2cc(Cl)ccc2C)CC1 (stereo unspecified),inactive: -14.8%
6,CCc1ccc(NC(=O)Cn2nnc(C(=O)NCCc3ccccc3)c2N)cc1,inactive: 2.47%
7,O=C(NCc1cccc(F)c1)C1CCN(c2nn3cc(-c4ccc(F)cc4)nc3s2)CC1,inactive: -3.21%
8,N#Cc1ccccc1Cn1c(=O)n(-c2ccccc2)c(=O)c2c3c(sc21)CCC3,inactive: 13.1%
9,CCOc1ccccc1NC(=O)Cn1c(=O)n(CCCCC(=O)NCCCOC)c(=O)c2ccccc21,inactive: 13.8%
10,Cc1ccc2[nH]c3c(=O)n(CC(=O)NCCCN4CCN(c5ccc(F)cc5)CC4)ncc3c2c1,inactive: 0.718%
11,CCc1ccccc1N(C)C(=O)c1cc2c(Cl)nc3ccc(C)cc3c2s1,inactive: 23.1%
12,COCCCNC(=O)C1CCN(C(=O)c2ccc(-n3ccc4ccccc43)s2)CC1,inactive: -8.45%
13,Cc1cc(C)cc(N(CC(=O)Nc2ccc(C)cc2Cl)S(=O)(=O)c2c(C)[nH]c(=O)[nH]c2=O)c1,inactive: 16%
14,CC1CCN(S(=O)(=O)c2ccc3c(c2)oc(=O)n3CC(=O)N2CCCCC2)CC1,inactive: -1.91%
15,Cc1ccccc1CNCCSc1nnnn1C,inactive: 6.11%
16,Cc1cccc(C)c1NC(=O)c1nc(SC(C)C)ncc1Cl,inactive: -15.8%
17,O=C(Nc1ccc(O)c(-c2nc3ccccc3o2)c1)c1ccc(-c2cccc(Cl)c2)o1,inactive: 6.99%
18,COC(=O)c1ccc(-n2nnc(-c3nsc(NC(=O)c4ccc(Cl)cc4)n3)c2C)cc1,inactive: -6.59%
19,O=c1c(NCCc2ccc(Cl)cc2)nccn1-c1ccccc1,inactive: -19%
20,COc1ccccc1NC(=O)CCNS(=O)(=O)c1ccc2c(c1)CCN2C(=O)C1CC1,inactive: -11.4%
21,Cc1ccccc1CNC(=O)Cc1csc2ccccc12,inactive: -5.41%

row,Structure (SMILES),"activity change, negative = cytotoxicity"
1,CCN(CC)C(=O)c1sc2c(c1C)c(=O)n(Cc1ccccc1)c(=O)n2CC(=O)Nc1ccc(OC)cc1,inactive: -15.4%
2,CCN(Cc1ccccc1)C(=O)CCS(=O)(=O)c1cc(Br)cc2c1N(C(=O)C1CC1)CC2,inactive: -4.16%
3,CN(c1ccccc1)S(=O)(=O)c1nnc(NC(=O)c2cccs2)s1,inactive: 1.49%
4,CCOC(=O)c1c(C)oc2ccc(N(C(=O)c3ccncc3)S(=O)(=O)c3ccc(F)cc3)cc12,inactive: -12.4%
5,COc1ccc(OC)c(CCNC(=O)c2cc3cccc4c3n2CCS4)c1,inactive: -8.68%
6,Cc1cc2n(n1)CCCN2C(=O)Nc1ccc(C)c(Cl)c1,inactive: -0.0474%
7,Cc1ccc(C)c(N2CCN(S(=O)(=O)c3ccc(F)c(C(=O)Nc4ccc(Cl)cc4Cl)c3)CC2)c1,inactive: 4.12%
8,COc1ccc(-c2cn3nc(SCC(=O)Nc4ccccc4F)ccc3n2)cc1,inactive: 4.05%
9,Cc1cc(C)c(NC(=O)COCc2cc(-c3cccs3)on2)c(C)c1,inactive: -2.89%
10,O=C(CSc1nccn1Cc1ccc(F)cc1)NCc1ccccc1,inactive: 3.56%
11,Cc1cccc(OCC(=O)Nc2cccc(C(=O)OCc3cc(=O)n4c(C)csc4n3)c2)c1,inactive: -12.9%
12,CCc1cccc(N2C(=O)CSC23C(=O)N(Cc2ccccc2F)c2ccccc23)c1 (stereo unspecified),inactive: 22.8%
13,COc1ccc(-n2ncc(C(=O)NCc3ccc4c(c3)OCO4)c2C2CCN(C(=O)OC(C)(C)C)CC2)cc1,inactive: -17.3%
14,COc1cc(NC(=O)Cn2c(=O)n(-c3ccccc3)c(=O)c3c4c(sc32)CCCC4)cc(OC)c1,inactive: 6.91%
15,Cc1ccccc1OCc1ccc(-c2nc(C#N)c(N3CCCCC3)o2)o1,inactive: -3.74%
16,CCCCNC(=O)c1cnn2c(C)c(Cc3c(C)cc(C)cc3C)c(C)nc12,inactive: -25.1%
17,COc1ccc(CC(=O)NCC(c2ccc(N(C)C)cc2)N2CCOCC2)cc1OC (stereo unspecified),inactive: 8.81%
18,CSc1ccc(CNC(=O)c2ccc3c(c2)N(C)C(=O)C2CCCCN32)cc1 (stereo unspecified),inactive: 3.86%
19,CC(C)COc1ccc(C(=O)Nc2scc(-c3ccc(Br)cc3)c2C(=O)OC(C)C)cc1,inactive: 1.01%
20,CCN(CC)c1ccc2cc(-c3nc(-c4ccccc4)no3)c(=O)oc2c1,inactive: -1.22%
21,Cc1ccc(CNC(=O)c2c(-c3ccc(F)cc3F)noc2C)o1,inactive: 0.347%

row,Structure (SMILES),"activity change, negative = cytotoxicity"
1,Cc1cc(C)c(NC(=O)Cn2nnc(C(=O)NCc3cccs3)c2N)c(C)c1,inactive: 2.13%
2,COc1ccc(-c2cn3nc(N4CCCC(C(=O)Nc5cc(Cl)ccc5OC)C4)sc3n2)cc1 (stereo unspecified),inactive: 29.4%
3,O=C(NCc1cccc(Cl)c1)C1CCN(c2nn3cc(-c4ccc(F)cc4)nc3s2)CC1,inactive: 7.09%
4,Cc1nc2cccnc2n1C1CCN(C(=O)Nc2ccccc2C(F)(F)F)CC1,inactive: -0.489%
5,CNS(=O)(=O)c1cn(CC(=O)N2CCN(c3ccc(Cl)cc3)CC2)cc1S(=O)(=O)NC,inactive: -1.38%
6,COc1ccc(C(=O)COC(=O)CCCC(=O)Nc2ccc(C(C)=O)cc2)cc1,inactive: 12.6%
7,CCOc1ccc(-n2nc(CO)c(C(=O)NCC(c3ccccc3)c3ccccc3)n2)cc1,inactive: -1.06%
8,O=C(NCc1ccccc1)c1cccc(N2CCCS2(=O)=O)c1,inactive: 1.24%
9,O=c1ccc2cc(S(=O)(=O)NCc3ccc(Cl)cc3)ccc2[nH]1,inactive: -0.605%
10,Cc1nn(S(=O)(=O)c2ccc(C(C)C)cc2)c(C)c1S(=O)(=O)N1CCCCC1,inactive: 15.6%
11,CCc1cccc(C)c1NS(=O)(=O)c1ccc2c(c1)NC(=O)C(C)C(=O)N2 (stereo unspecified),inactive: 1.3%
12,CCOc1ccc(-n2c(=O)c3c4c(sc3n(CC(=O)NCCCOC)c2=O)CCCCC4)cc1,inactive: 0.967%
13,Cc1ccc2c(c1)-c1c(cnn1CC(=O)N1CCN(c3cccc(C(F)(F)F)c3)CC1)CO2,inactive: 11.7%
14,COc1ccc(CNC(=O)CN2C(=O)COc3ccc(S(=O)(=O)N4CCCCCC4)cc32)cc1,inactive: 17.9%
15,COc1ccc(-n2c(SCC(=O)NCc3ccccc3)nc3ccsc3c2=O)cc1,inactive: -17.2%
16,COC(=O)c1sccc1S(=O)(=O)N(CC(=O)Nc1cc(C)cc(C)c1)c1ccc(Cl)cc1,inactive: -5.59%
17,COCCOC(=O)Cn1nnc2sc(-c3ccccc3)cc2c1=O,inactive: 1.83%
18,CCOC(=O)c1ccc(NC(=O)CC2Nc3cc(C)c(C)cc3NC2=O)cc1 (stereo unspecified),inactive: -25.9%
19,COc1ccc(CNC(=O)c2ccc(CNS(=O)(=O)c3ccc(OC)cc3)cc2)cc1,inactive: 9.96%
